In one experiment the target is hAG-OPTN (human) (UniProt Q96CV9). The experiment in a line: Fluoppi (phase-separated fluorescent foci in cells); hAG-tagged autophagy adaptor and HA-Ash-6Ub transiently co-expressed in HeLa (WT, Penta KO, FIP200 KO, ATG5 KO, ATG9A KO) or HCT116 (WT, TBK1-/-) cells; foci formation and incorporation of a third protein into the foci read by immunostaining and confocal microscopy; some samples with 2 µM BX-795 for 15 h.

By UniProt entry, the sequences of proteins in these tests, tags left out. Where a name states a change or a piece, a line headed by the entry shows the natural chain unless it says otherwise. Chains listed by the source or under a name are the forms on record and can include a tag or linker.
UniProt Q96CV9: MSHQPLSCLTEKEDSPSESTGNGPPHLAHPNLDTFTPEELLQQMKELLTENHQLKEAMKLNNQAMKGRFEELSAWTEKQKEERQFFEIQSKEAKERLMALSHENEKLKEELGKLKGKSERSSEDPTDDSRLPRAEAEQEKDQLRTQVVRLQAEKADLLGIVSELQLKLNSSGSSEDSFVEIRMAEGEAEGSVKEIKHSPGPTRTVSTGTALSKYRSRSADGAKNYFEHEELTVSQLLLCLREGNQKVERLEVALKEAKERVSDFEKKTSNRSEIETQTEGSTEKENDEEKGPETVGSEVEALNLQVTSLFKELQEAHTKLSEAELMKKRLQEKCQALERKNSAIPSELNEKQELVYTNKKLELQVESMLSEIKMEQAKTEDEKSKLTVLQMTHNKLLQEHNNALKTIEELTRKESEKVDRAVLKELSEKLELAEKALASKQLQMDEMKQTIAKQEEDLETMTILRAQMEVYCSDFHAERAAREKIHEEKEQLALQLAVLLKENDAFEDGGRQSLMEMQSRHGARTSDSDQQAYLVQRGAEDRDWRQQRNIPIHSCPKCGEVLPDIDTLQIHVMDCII
3FLAG-hAG-OPTN(4LA, S473E) (Q96CV9, form named): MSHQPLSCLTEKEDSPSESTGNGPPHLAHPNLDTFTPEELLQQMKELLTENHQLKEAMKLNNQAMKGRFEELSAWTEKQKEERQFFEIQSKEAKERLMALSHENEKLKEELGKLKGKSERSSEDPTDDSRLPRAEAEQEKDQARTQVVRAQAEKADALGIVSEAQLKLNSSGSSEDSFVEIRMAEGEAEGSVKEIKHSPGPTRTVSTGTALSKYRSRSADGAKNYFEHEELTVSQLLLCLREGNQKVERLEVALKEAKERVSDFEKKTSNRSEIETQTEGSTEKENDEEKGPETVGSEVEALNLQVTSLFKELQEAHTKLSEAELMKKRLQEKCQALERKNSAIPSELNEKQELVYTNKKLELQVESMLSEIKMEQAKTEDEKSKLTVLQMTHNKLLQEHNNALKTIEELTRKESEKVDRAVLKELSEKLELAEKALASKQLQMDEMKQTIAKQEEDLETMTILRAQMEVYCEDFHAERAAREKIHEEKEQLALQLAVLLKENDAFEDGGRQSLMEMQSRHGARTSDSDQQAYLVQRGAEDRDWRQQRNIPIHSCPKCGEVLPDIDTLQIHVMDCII
hAG-OPTN(128-577, S473E) (Q96CV9, form named): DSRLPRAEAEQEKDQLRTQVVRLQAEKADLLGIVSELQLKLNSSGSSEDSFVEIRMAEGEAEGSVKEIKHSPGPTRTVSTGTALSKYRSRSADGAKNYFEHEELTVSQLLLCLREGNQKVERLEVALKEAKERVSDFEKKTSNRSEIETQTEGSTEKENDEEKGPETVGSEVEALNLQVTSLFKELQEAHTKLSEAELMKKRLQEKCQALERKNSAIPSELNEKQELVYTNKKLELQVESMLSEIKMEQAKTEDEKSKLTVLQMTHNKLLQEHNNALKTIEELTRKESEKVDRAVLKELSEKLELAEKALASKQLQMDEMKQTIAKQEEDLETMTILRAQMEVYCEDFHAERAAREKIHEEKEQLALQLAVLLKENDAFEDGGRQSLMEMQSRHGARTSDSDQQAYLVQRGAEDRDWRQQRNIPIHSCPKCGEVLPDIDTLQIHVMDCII
hAG-OPTN(128-5A-132, S473E) (Q96CV9, form named): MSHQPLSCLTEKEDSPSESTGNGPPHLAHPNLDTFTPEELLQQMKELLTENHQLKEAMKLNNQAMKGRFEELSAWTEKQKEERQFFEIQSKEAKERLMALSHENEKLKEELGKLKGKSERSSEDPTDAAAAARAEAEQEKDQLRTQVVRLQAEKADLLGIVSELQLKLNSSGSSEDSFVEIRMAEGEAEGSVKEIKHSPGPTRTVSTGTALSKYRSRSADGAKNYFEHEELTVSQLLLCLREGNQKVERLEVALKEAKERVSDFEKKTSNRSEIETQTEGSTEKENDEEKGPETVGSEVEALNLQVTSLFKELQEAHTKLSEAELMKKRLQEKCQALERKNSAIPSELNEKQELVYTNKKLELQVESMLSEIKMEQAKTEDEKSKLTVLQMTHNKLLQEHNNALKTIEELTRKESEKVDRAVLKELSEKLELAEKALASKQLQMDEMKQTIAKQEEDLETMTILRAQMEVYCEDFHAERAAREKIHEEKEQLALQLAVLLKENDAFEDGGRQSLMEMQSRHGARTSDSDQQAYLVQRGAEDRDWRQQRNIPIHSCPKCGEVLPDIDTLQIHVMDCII
hAG-OPTN(133-5A-137, S473E) (Q96CV9, form named): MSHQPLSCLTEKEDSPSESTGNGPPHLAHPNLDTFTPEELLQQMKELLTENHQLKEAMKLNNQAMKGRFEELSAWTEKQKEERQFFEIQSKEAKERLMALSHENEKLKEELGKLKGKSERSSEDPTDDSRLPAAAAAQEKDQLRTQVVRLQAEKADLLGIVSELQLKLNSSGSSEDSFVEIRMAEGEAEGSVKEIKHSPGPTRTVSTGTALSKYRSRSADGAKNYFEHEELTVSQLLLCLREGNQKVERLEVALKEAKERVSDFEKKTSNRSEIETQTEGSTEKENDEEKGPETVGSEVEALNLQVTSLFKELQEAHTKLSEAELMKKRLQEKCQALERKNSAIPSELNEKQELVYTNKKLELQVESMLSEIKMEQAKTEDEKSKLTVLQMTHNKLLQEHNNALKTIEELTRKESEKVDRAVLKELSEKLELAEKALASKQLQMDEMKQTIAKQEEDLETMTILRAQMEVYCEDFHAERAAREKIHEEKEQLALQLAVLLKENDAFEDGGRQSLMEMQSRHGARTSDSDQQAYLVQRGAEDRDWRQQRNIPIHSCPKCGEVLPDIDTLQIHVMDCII
hAG-OPTN(138-5A-142, S473E) (Q96CV9, form named): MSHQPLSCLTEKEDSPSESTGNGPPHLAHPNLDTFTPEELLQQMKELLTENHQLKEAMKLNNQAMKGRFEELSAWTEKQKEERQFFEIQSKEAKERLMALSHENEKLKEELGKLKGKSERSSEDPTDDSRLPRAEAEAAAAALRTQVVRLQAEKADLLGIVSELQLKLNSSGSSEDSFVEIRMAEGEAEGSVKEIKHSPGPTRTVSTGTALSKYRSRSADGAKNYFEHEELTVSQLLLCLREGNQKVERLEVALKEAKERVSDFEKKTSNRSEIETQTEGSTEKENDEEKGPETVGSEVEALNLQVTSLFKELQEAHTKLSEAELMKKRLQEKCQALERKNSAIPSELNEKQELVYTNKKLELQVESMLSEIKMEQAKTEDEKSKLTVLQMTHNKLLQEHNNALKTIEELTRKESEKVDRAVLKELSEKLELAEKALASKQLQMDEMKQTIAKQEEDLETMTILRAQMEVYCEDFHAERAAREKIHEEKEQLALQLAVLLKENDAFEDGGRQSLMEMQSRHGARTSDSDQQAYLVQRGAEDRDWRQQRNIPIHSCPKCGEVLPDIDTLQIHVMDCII
hAG-OPTN(143-5A-147, S473E) (Q96CV9, form named): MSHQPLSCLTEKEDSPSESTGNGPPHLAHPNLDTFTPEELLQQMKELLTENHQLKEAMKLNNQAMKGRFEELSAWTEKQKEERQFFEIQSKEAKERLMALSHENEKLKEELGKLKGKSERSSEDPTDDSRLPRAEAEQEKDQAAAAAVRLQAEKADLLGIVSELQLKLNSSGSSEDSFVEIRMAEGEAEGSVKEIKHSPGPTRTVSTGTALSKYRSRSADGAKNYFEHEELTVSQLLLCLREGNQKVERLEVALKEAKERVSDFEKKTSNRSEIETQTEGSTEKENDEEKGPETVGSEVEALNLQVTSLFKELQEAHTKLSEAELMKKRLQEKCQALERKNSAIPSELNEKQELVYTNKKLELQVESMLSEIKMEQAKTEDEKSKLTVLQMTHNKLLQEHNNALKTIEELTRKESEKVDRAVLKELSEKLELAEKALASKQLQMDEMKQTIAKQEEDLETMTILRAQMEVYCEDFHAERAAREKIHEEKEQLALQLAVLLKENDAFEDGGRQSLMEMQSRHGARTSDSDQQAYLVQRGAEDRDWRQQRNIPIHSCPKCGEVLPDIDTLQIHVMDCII
hAG-OPTN(148-5A-152, S473E) (Q96CV9, form named): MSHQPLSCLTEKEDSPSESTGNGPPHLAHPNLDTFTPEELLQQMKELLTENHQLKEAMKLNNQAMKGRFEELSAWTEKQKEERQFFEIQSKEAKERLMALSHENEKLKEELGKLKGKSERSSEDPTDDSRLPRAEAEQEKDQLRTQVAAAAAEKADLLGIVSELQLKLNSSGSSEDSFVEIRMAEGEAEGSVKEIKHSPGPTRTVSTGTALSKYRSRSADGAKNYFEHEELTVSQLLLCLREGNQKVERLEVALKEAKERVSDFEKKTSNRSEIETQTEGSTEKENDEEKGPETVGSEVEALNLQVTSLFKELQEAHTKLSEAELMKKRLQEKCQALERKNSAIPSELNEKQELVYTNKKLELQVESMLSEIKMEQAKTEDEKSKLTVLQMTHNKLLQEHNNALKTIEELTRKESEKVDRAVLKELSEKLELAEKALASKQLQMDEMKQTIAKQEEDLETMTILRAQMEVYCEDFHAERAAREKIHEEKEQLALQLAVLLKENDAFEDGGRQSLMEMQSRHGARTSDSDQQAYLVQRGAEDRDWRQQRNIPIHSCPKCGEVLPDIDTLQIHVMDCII
hAG-OPTN(150-577, S473E) (Q96CV9, form named): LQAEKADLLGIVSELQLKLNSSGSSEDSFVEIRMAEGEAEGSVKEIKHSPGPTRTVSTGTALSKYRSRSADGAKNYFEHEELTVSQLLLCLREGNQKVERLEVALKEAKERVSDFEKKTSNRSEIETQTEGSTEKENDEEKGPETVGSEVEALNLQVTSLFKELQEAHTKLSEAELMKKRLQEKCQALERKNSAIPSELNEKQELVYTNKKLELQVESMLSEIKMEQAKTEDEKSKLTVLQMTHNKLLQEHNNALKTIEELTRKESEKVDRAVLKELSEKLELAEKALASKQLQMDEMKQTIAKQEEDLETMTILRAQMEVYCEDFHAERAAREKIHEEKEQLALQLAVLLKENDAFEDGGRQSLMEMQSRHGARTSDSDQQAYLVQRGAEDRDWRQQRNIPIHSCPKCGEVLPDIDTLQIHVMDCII
hAG-OPTN(170-577, S473E) (Q96CV9, form named): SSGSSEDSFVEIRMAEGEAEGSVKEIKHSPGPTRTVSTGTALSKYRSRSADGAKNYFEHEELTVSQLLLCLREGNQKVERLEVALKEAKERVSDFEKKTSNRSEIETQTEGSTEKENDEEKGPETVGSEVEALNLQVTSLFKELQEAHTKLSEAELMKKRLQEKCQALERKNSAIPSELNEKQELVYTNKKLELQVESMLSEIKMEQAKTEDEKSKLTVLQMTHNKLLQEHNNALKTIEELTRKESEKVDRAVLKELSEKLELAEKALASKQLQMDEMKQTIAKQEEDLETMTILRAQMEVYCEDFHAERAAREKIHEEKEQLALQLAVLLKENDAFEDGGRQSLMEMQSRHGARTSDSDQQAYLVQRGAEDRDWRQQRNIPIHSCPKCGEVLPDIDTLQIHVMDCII
hAG-OPTN(190-577, S473E) (Q96CV9, form named): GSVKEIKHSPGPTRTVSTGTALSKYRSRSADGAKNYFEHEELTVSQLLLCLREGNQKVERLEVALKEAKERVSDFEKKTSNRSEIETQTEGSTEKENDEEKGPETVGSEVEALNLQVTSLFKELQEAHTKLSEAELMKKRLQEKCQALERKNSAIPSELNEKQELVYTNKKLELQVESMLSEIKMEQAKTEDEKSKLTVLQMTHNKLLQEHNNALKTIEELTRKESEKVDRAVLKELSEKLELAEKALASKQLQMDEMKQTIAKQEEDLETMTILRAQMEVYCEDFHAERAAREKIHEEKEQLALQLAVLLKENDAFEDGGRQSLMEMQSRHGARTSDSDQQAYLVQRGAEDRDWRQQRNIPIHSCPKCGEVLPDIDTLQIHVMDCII
hAG-OPTN(210-577, S473E) (Q96CV9, form named): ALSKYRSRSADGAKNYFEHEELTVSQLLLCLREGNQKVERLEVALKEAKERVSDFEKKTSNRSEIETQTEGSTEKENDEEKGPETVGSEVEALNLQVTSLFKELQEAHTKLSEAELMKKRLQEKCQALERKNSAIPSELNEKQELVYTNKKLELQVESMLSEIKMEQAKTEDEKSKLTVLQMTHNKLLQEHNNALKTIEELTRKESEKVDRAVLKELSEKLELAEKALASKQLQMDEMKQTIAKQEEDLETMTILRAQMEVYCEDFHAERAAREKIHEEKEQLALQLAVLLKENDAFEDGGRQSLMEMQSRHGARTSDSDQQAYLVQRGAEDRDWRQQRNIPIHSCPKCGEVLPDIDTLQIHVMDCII
hAG-OPTN(301-577, S473E) (Q96CV9, form named): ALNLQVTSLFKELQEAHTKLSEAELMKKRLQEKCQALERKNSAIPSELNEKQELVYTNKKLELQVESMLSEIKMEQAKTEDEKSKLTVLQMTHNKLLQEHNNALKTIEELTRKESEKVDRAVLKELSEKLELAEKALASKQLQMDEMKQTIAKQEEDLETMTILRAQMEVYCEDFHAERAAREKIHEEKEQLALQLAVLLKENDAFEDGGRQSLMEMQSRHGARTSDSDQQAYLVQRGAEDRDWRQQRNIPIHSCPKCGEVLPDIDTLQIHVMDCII
hAG-OPTN(401-577, S473E) (Q96CV9, form named): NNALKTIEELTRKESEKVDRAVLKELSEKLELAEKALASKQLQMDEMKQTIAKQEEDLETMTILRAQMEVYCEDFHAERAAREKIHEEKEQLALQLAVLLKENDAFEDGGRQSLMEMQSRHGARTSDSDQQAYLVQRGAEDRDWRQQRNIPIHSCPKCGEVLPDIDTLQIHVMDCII

In experiment [1] the target is 3FLAG-hAG-OPTN(4LA, S473E) (human) (UniProt Q96CV9). The experiment can be described thus: co-IP; HeLa cells transiently expressing 3FLAG-hAG-OPTN and HA-Ash-6Ub; 1 mM DSP cross-linking, 1% NP-40 buffer (20 mM Tris-HCl pH 8.0, 150 mM NaCl, 1 mM EDTA), sonication, anti-DDDDK-tag gel 90 min at 4°C, immunoblot. On the technique in general: A western blot detects proteins with antibodies after separation by electrophoresis.

Experiment [2] concerns the target 3FLAG-hAG-OPTN(M44Q/L54Q, S473E) (human) (UniProt Q96CV9). Described as above.
In experiment [3] the target is hAG-OPTN(128-577, S473E) (human) (UniProt Q96CV9). The experiment in a line: Fluoppi (phase-separated fluorescent foci in cells); hAG-tagged autophagy adaptor and HA-Ash-6Ub transiently co-expressed in HeLa (WT, Penta KO, FIP200 KO, ATG5 KO, ATG9A KO) or HCT116 (WT, TBK1-/-) cells; foci formation and incorporation of a third protein into the foci read by immunostaining and confocal microscopy; some samples with 2 µM BX-795 for 15 h.

Experiment [4] addresses hAG-OPTN(128-5A-132, S473E) (human) (UniProt Q96CV9). Described as above.
In experiment [5] the target is hAG-OPTN(133-5A-137, S473E) (human) (UniProt Q96CV9). The experiment is described as above.
Experiment [6] concerns the target hAG-OPTN(138-5A-142, S473E) (human) (UniProt Q96CV9). The description is as above.
The target in experiment [7] is hAG-OPTN(143-5A-147, S473E) (human) (UniProt Q96CV9). Described as above.
The target in experiment [8] is hAG-OPTN(148-5A-152, S473E) (human) (UniProt Q96CV9). Described as above.
Experiment [9] deals with hAG-OPTN(150-577, S473E) (human) (UniProt Q96CV9). The description is as above.
The target of experiment [10] is hAG-OPTN(170-577, S473E) (human) (UniProt Q96CV9). The description is as above.
For experiment [11], the target named is hAG-OPTN(190-577, S473E) (human) (UniProt Q96CV9). The description is as above.
The target in experiment [12] is hAG-OPTN(210-577, S473E) (human) (UniProt Q96CV9). The description is as above.
The target in experiment [13] is hAG-OPTN(301-577, S473E) (human) (UniProt Q96CV9). The description is as above.
The target in experiment [14] is hAG-OPTN(401-577, S473E) (human) (UniProt Q96CV9). Described as above.
The target in another experiment is hAG-OPTN(S473E) (human) (UniProt Q96CV9). The experiment is described as above.

From publication PMC7480101 come the findings set out here.

No constants are given. Whether binding was seen depends on the method and setting. For some assays here: Binding seen in cells or lysates may run through a third protein. Some entries that bind do so weakly or less than the wild type. For some assays here: Sequences can lack the tags named with a protein.

B1: WIPI2 (protein, UniProt Q9Y4P8 1-454)
chain: MNLASQSGEAGAGQLLFANFNQDNTEVKGASRAAGLGRRAVVWSLAVGSKSGYKFFSLSSVDKLEQIYECTDTEDVCIVERLFSSSLVAIVSLKAPRKLKVCHFKKGTEICNYSYSNTILAVKLNRQRLIVCLEESLYIHNIRDMKVLHTIRETPPNPAGLCALSINNDNCYLAYPGSATIGEVQVFDTINLRAANMIPAHDSPLAALAFDASGTKLATASEKGTVIRVFSIPEGQKLFEFRRGVKRCVSICSLAFSMDGMFLSASSNTETVHIFKLETVKEKPPEEPTTWTGYFGKVLMASTSYLPSQVTEMFNQGRAFATVRLPFCGHKNICSLATIQKIPRLLVGAADGYLYMYNLDPQEGGECALMKQHRLDGSLETTNEILDSASHDCPLVTQTYGAAAGKGTYVPSSPTRLAYTDDLGAVGGACLEDEASALRLDEDSEHPPMILRTD
With B1, the binding result in the experiment with hAG-OPTN (human) is given as “no binding”.

B2: 3FLAG-TBK1 (enzyme, UniProt Q9UHD2 1-729)
chain: MQSTSNHLWLLSDILGQGATANVFRGRHKKTGDLFAIKVFNNISFLRPVDVQMREFEVLKKLNHKNIVKLFAIEEETTTRHKVLIMEFCPCGSLYTVLEEPSNAYGLPESEFLIVLRDVVGGMNHLRENGIVHRDIKPGNIMRVIGEDGQSVYKLTDFGAARELEDDEQFVSLYGTEEYLHPDMYERAVLRKDHQKKYGATVDLWSIGVTFYHAATGSLPFRPFEGPRRNKEVMYKIITGKPSGAISGVQKAENGPIDWSGDMPVSCSLSRGLQVLLTPVLANILEADQEKCWGFDQFFAETSDILHRMVIHVFSLQQMTAHKIYIHSYNTATIFHELVYKQTKIISSNQELIYEGRRLVLEPGRLAQHFPKTTEENPIFVVSREPLNTIGLIYEKISLPKVHPRYDLDGDASMAKAITGVVCYACRIASTLLLYQELMRKGIRWLIELIKDDYNETVHKKTEVVITLDFCIRNIEKTVKVYEKLMKINLEAAELGEISDIHTKLLRLSSSQGTIETSLQDIDSRLSPGGSLADAWAHQEGTHPKDRNVEKLQVLLNCMTEIYYQFKKDKAERRLAYNEEQIHKFDKQKLYYHATKAMTHFTDECVKKYEAFLNKSEEWIRKMLHLRKQLLSLTNQCFDIEEEVSKYQEYTNELQETLPQKMFTASSGIKHTMTPIYPSSNTLVEMTLGMKKLKEEMEGVVKELAENNHILERFGSLTMDGGLRNVDCL
B2: the binding entry in the experiment with hAG-OPTN (human) is “binds”.

B3: TBK1 (enzyme, UniProt Q9UHD2 1-729)
chain: MQSTSNHLWLLSDILGQGATANVFRGRHKKTGDLFAIKVFNNISFLRPVDVQMREFEVLKKLNHKNIVKLFAIEEETTTRHKVLIMEFCPCGSLYTVLEEPSNAYGLPESEFLIVLRDVVGGMNHLRENGIVHRDIKPGNIMRVIGEDGQSVYKLTDFGAARELEDDEQFVSLYGTEEYLHPDMYERAVLRKDHQKKYGATVDLWSIGVTFYHAATGSLPFRPFEGPRRNKEVMYKIITGKPSGAISGVQKAENGPIDWSGDMPVSCSLSRGLQVLLTPVLANILEADQEKCWGFDQFFAETSDILHRMVIHVFSLQQMTAHKIYIHSYNTATIFHELVYKQTKIISSNQELIYEGRRLVLEPGRLAQHFPKTTEENPIFVVSREPLNTIGLIYEKISLPKVHPRYDLDGDASMAKAITGVVCYACRIASTLLLYQELMRKGIRWLIELIKDDYNETVHKKTEVVITLDFCIRNIEKTVKVYEKLMKINLEAAELGEISDIHTKLLRLSSSQGTIETSLQDIDSRLSPGGSLADAWAHQEGTHPKDRNVEKLQVLLNCMTEIYYQFKKDKAERRLAYNEEQIHKFDKQKLYYHATKAMTHFTDECVKKYEAFLNKSEEWIRKMLHLRKQLLSLTNQCFDIEEEVSKYQEYTNELQETLPQKMFTASSGIKHTMTPIYPSSNTLVEMTLGMKKLKEEMEGVVKELAENNHILERFGSLTMDGGLRNVDCL
Turning to B3, the binding entry is on record as “binds” in experiment [1]; “no binding” in experiment [2]; “no binding” in [3]; “binds” in experiment [4]; “binds” in [5]; “binds” in experiment [6]. Moreover, the binding result was “binds” in experiment [7]; “binds” in experiment [8]; “no binding” in experiment [9]; “no binding” in experiment [10]; “no binding” in experiment [11]; “no binding” in experiment [12]. Moreover, the binding result in experiment [13] is “no binding”; in experiment [14], “no binding”; with hAG-OPTN(S473E) (human), “binds”.
